# Results as given in article PMC4336329 (PLoS ONE, 2015).
# In all, about 310,000 compounds went through this assay and about 2,200 (0.71%) showed an effect of 50% or more. Effects have a minus sign here. The list shows a part of the results.
# Molecular target: human ether-à-go-go-related gene (hERG) potassium channel (human, UniProt Q12809)
# Experiment: primary screen, population patch clamp on CHO cells stably expressing hERG
# Sequence of human ether-à-go-go-related gene (hERG) potassium channel (Q12809 whole entry, looked up): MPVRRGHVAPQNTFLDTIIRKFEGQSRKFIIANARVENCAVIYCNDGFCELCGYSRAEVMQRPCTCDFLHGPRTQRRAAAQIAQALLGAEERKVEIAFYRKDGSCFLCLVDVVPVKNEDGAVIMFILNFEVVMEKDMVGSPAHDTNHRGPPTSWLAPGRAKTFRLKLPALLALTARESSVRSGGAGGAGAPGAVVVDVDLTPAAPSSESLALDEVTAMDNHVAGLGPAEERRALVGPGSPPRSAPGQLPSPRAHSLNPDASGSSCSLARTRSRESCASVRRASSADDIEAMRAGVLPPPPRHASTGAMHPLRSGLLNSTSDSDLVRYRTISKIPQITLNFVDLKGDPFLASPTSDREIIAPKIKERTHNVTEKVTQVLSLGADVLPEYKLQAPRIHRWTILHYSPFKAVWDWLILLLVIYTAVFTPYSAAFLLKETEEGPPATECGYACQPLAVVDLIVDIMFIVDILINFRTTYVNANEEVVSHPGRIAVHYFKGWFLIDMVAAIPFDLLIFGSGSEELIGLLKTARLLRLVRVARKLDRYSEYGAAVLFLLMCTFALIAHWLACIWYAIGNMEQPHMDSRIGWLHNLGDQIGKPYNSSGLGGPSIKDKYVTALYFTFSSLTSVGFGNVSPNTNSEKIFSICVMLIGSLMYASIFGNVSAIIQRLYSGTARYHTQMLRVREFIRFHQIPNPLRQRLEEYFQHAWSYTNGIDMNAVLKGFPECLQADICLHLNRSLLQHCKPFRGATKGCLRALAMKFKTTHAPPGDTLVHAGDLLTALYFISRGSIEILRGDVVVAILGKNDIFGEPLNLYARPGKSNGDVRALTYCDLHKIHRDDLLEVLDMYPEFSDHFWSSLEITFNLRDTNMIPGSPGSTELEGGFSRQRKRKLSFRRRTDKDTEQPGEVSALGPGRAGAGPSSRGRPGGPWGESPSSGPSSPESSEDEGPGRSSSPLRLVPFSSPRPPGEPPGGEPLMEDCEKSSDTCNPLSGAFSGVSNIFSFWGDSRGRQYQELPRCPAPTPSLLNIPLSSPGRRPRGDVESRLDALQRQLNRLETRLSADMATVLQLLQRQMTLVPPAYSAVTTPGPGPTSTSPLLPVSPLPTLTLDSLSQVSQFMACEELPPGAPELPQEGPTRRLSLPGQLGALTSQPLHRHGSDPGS
row,SMILES,"hERG current change (%, negative = inhibition) at 1uM"
1,CC(=O)Nc1ccc(S(=O)(=O)NCC(=O)OCC(=O)NC(=O)C2CCCCC2)cc1,20.4%
2,Cl.Nc1nc(Nc2ccccc2)nc2ccccc12,-2.62%
3,Cc1nc2cc(NC(=O)N3CC4(C)CC3CC(C)(C)C4)ccc2n1C (centres unmarked),-9.66%
4,O=C(NN=C1CCCC1)c1cccc(Br)c1,5.26%
5,O=C(Nc1ccc(N2CCCC2)cc1)c1ccc(Br)o1,1.75%
6,O=C1CN(S(=O)(=O)c2ccccc2C(F)(F)F)CCN1,12%
7,CCN(C(=O)CCS(=O)(=O)c1cccc2nonc12)c1ccc(F)cc1,7.31%
8,CC(=O)Nc1ccc(-c2cc(C(=O)O)c3ccccc3n2)cc1,16.8%
9,COc1ccccc1-c1nc(-c2ccc(C)nc2OC)no1,11.9%
10,CC1(C)Cc2c(cnn2-c2ccccc2)C(=O)/C1=N\NC(=O)c1ccccc1N,8.6%
11,CCOC(=O)C1CCN(C(=O)c2ccc3c(Cl)c4c(nc3c2)CCCC4)CC1,-2.4%
12,CC(=Nc1ccccc1O)c1sc2ccccc2c1O,12.6%
13,C=CCNC(=S)NNC(=O)c1ccc([N+](=O)[O-])cc1,13.8%
14,COc1ccc(/C(O)=C2/C(=O)C(=O)N(Cc3cccnc3)C2c2ccco2)cc1OC (centres unmarked),11.9%
15,CC(=O)Oc1ccccc1N(C(C)=O)S(=O)(=O)c1ccc(C)cc1,12.2%
16,Cc1ccc2nc(-c3ccc(NC(=O)CCN4C(=O)c5ccccc5C4=O)cc3)sc2c1,-2.15%
17,COn1c(=O)c(=O)n(O)c2ccccc21,6.8%
18,C=CCN1C(=O)C2C(C(=O)NC)C3C=CC2(O3)C1C(=O)NCc1ccc(OC)cc1 (centres unmarked),2.15%
19,C/C(CC(=O)Nc1ccc2c(c1)OCCO2)=N\NC(=O)c1ccccc1Cl,14.4%
20,CSc1nc2c(c(=O)[nH]1)C(c1cccc(Cl)c1Cl)CC(=O)N2 (centres unmarked),18.8%
21,CN(CCOc1ccc(Cl)cc1)Cc1cccc(S(=O)(=O)N(C)C)c1,-11.9%
22,COc1ccc(-c2cc(-c3n[nH]c(=S)n3-c3ccccc3OC)[nH]n2)cc1,11.1%
23,C/C(=N/NC(=O)c1ccncc1)c1c[nH]c2ccccc12,11.1%

row,SMILES,"hERG current change (%, negative = inhibition) at 1uM"
1,O=C(CC1(O)C(=O)Nc2ccccc21)c1ccc(-n2cccc2)cc1 (centres unmarked),9.56%
2,Cc1c(NCc2cccnc2)cccc1C(=O)O,11%
3,CN1CCC[C@H]1c1cccnc1,17.5%
4,CCOc1ccc2nc(NC(=O)c3ccc(OCC4CCCO4)cc3)sc2c1 (centres unmarked),-4.12%
5,COc1ccccc1NC(=O)CCN1CCN(c2ccc(Cl)cc2)CC1,-4.76%
6,CCN(CC(=O)Nc1c(F)cccc1F)C(=O)CCC(=O)c1ccc(F)cc1,11.6%
7,O=C(c1cccs1)N1CCC(c2nc3c(nnn3Cc3ccccc3)c(=O)[nH]2)CC1,14.7%
8,O=C(O)C(Cc1ccc(Cl)cc1)NS(=O)(=O)c1ccc(Cl)cc1 (centres unmarked),18.8%
9,CCOC(=O)c1c(C)nn(-c2ccc(NC(=O)/C=C/C(=O)O)cc2)c1C,13.8%
10,Cc1ccc(S(=O)(=O)c2nc(-c3ccc(F)cc3)oc2SCC(N)=O)cc1,0.367%
11,CCCCc1cc(=O)oc2cc(C)cc(OCC(=O)NCCN3CCOCC3)c12,-2.11%
12,Cc1c(C(=O)NCCCN2CCCCC2)oc2ccc3c(c12)C(O)CC1(CCCCC1)O3 (centres unmarked),3.43%
13,O=C(NNC(=O)c1ccc(Cl)s1)c1csc(N2CCOCC2)n1,8.72%
14,CCOc1ccccc1N1CCN(C(=O)c2ccncc2)CC1,5.06%
15,CC(C)N1C(=O)/C(=C/c2nc3ccccc3c(=O)n2-c2ccccc2)c2ccccc21,4.36%
16,COc1ccc(OC)c(/C=C/C(=O)N(C)CC(=O)Nc2ccc(C)cc2)c1,-5.02%
17,NS(=O)(=O)c1ccc(N/N=C/c2cn(-c3ccccc3)nc2-c2cccs2)cc1,11.4%
18,Cc1ccccc1CC(=O)N1CCOCC1,11.5%
19,Cn1cccc1CN1CCN(C(=O)COc2ccccc2)CC1,9.91%
20,Cc1cccc(CC(=O)NCCn2c(C)cc3ccccc32)c1,7.36%
21,CCOc1ccccc1CNc1ccc(N2CCOCC2)c(C(=O)O)c1,-5.58%
22,O=C(Nc1cc(S(=O)(=O)N2CCOCC2)ccc1Cl)c1cc(=O)c2ccccc2o1,15.6%
23,CC1CN(CC(=O)NC(C)c2ccccc2)CC(C)O1 (centres unmarked),15.5%

row,SMILES,"hERG current change (%, negative = inhibition) at 1uM"
1,Cc1onc(-c2ccc(Cl)cc2Cl)c1C(=O)/C=C/N(C)C,9.02%
2,COC(=O)c1ccc(CSc2nc(-c3ccccc3)cs2)o1,13.6%
3,O=C(/C=C/c1ccccc1)Nc1cc(S(=O)(=O)N2CCOCC2)ccc1N1CCCC1,15.7%
4,O=C1CC(=O)N(CCc2ccccc2)C(=O)N1CCc1ccccc1,5.24%
5,CC(=O)Nc1ccc(NC(=O)C(C)OC(=O)C2(c3ccc(F)cc3)CCCC2)cc1 (centres unmarked),0.852%
6,CCOc1cc(/C=N/N2CCOCC2)ccc1OCc1ccc(C(=O)OC)o1,3.55%
7,CCCCC(=O)Nc1cccc(-c2nc3ncccc3o2)c1,-2.95%
8,Cc1ccc(NC(=S)NNC(=O)c2c(Cl)c(C)nn2C)cc1,9.97%
9,Cc1cc2ccccn2c1C(=O)c1cccc(S(=O)(=O)N2CCOCC2)c1,16.9%
10,CCCc1nc(N)c(C#N)c(N)c1C#N,8.26%
11,C[Si](C)(C)n1ccnc1,13.6%
12,NC(=S)N(c1ccccc1)c1ccccc1,7.38%
13,COc1cccc(NC(=S)NCc2ccco2)c1,-1.17%
14,COc1ccc(C(=O)Nc2ccc(N3CCN(C(=O)C(C)C)CC3)cc2)cc1[N+](=O)[O-],15.9%
15,O=C(Nc1nnc(-c2cccs2)s1)c1cccc(F)c1,13.9%
16,O=C(NC1CCCCC1)C(c1ccc2ncccc2c1)N(Cc1ccc2c(c1)OCO2)C(=O)c1ccc2c(c1)OCCO2 (centres unmarked),6.05%
17,NC(=O)NC(=O)C(c1ccccc1)N1CCN(S(=O)(=O)c2ccc(Br)s2)CC1 (centres unmarked),4.82%
18,CCOc1ccc(N(CC(=O)Nc2ccccc2Cl)S(C)(=O)=O)cc1,8.85%
19,CCn1c(CNc2ccc(F)cc2)nnc1SCC(=O)N1CCCc2ccccc21,-12.3%
20,O=C(/C=C/c1cccnc1)c1ccc(O)cc1,1.87%
21,COC(=O)COc1ccc2cc(-c3ccccc3)c(=O)oc2c1,12%
22,Cn1c(N2CCOCC2)c(C#N)c2ccccc21,13.6%
23,CSCCC(NS(=O)(=O)c1ccc(Cl)cc1)C(=O)OCC(=O)N(C(C)C)C(C)C (centres unmarked),4.87%

row,SMILES,"hERG current change (%, negative = inhibition) at 1uM"
1,CN(c1ccc(OCC(=O)Nc2ccc3[nH]c(=O)[nH]c3c2)cc1)S(=O)(=O)c1ccc(Cl)cc1,4.92%
2,O=C(c1ccc(F)cc1Cl)N1CCN(S(=O)(=O)c2cccs2)CC1,6.46%
3,Cc1coc2cc3oc(=O)c(CCC(=O)NCC(=O)O)c(C)c3cc12,11.6%
4,Cc1cccc(N(Cc2cc3ccccc3[nH]c2=O)S(C)(=O)=O)c1,5.48%
5,C=C(C)Cn1c(N2CCC(Cc3ccccc3)CC2)nc2c1c(=O)[nH]c(=O)n2C,3.87%
6,CCOc1ccc(S(=O)(=O)N2CCCCC2)cc1NC(=O)CC1OC(=O)c2ccccc21 (centres unmarked),-3.94%
7,O=C(Cc1ccc(NS(=O)(=O)c2cccc(C(F)(F)F)c2)cc1)NCCN1CCOCC1,5.88%
8,CCCCN1CC[C@H]2C=CC[C@@H](C(=O)Nc3nccs3)[C@H]2C1=O,16.1%
9,COc1ccc(N2CC(C(=O)OCC(=O)c3cccc(OC)c3)CC2=O)cc1 (centres unmarked),9.44%
10,CC1(C)CC(N2CCN(c3ccccc3)CC2)=CC(=[N+]2CCCC2)C1.[I-],5.76%
11,CCn1c(=O)c(C(=O)NCc2ccc(OC)cc2)c(O)c2ccccc21,4.61%
12,CCCC(=O)Oc1ccc(N(C(=O)CCC)S(=O)(=O)c2cccc([N+](=O)[O-])c2)cc1,6.26%
13,Cl.O=C(CNCc1cccs1)Nc1ccc(OC(F)(F)F)cc1,3.26%
14,COc1ccc(OC)c(NC(=O)c2cc3sccc3n2C)c1,6.78%
15,CC(C)(C)NC(=O)Cn1cnc([N+](=O)[O-])n1,-1.83%
16,CCNC(=O)/C(C#N)=C/c1c(N2CCN(c3ccccc3)CC2)nc2c(C)cccn2c1=O,-0.0597%
17,Cc1ccccc1NCC(=O)N/N=C/c1ccc([N+](=O)[O-])cc1,6.35%
18,Cc1ccc2c(CN3CCN(S(=O)(=O)/C=C/c4ccccc4)CC3)cc(=O)oc2c1,-8.17%
19,O=C(Nc1ccccc1C(=O)Nc1ccccc1)c1ccccc1F,16.5%
20,O=C(CCN1CCOCC1)N/N=C/c1cc(Br)cc(Br)c1O,10.4%
